Some results are limits rather than exact numbers.

By IC50 is commonly meant the concentration that gives 50% inhibition.

This test addresses human LRRK2(G2019S) kinase (Homo sapiens, UniProt Q5S007, G2019S). Nature of the test: biochemical. On the procedure:
Assay kits from Promega™ Corporation were used according to instructions and adapted as outlined herein. Test compounds were generally prepared with 1:3 serial dilutions for 12 concentrations (from 50 μM to 0.01 nM) ATP competition experiments. The kinase reaction was performed with kinase reaction buffer (40 mM Tris base pH 7.4, 20 mM MgCl2, 0.5 mM dithiothreitol), 0.1 mg/ml bovine serum albumin, distilled H2O). The reaction mixtures contained Pure ATP solution (10 μM), specific substrate (0.2 μg), and (human LRRK2 kinase (25 ng)) or (human LRRK2(G2019S) kinase (16 ng)), in a total assay volume of 5 μl after the manufacturer's protocol. In brief, the kinase reactions were started by addition of ATP to the kinase reaction mixture. The resulting mixture was incubated for 60 minutes at 25° C., and then stopped by adding 5 μl of ADP-Glo™ reagent. After incubation at room temperature in the dark for 40 minutes, 10 μl of kinase detection reagent was added per well, and the mixture was incubated for 10 minutes. Luminescence was measured using a Synergy™NEO2 plate reader (BioTek®) with an integration time of 1 second per well. Positive and negative controls were performed in 0.5% DMSO in the presence and absence of LRRK2 kinases. Curve fitting and data presentations were performed using GraphPad Prism version 5.0 (GraphPad Software, Inc.). The LRKK2 and LRRK2(G2019S) assay with inventive compounds 1-64 are summarized in the table below (Table 1), wherein: […]
In the case of `CS(=O)(=O)CCNc1nc(Nc2ccc(C(=O)N3CCOCC3)c3c2OCCO3)nc2[nH]cc(Cl)c12` [Compound 70, (8-((5-chloro-4-((2-(methylsulfonyl)ethyl)amino)-7H-pyrrolo[2,3-d]pyrimidin-2-yl)amino)-2,3-dihydrobenzo[b][1,4]dioxin-5-yl)(morpholino)methanone], the IC50 is less than 10 nM.

`CCCCNc1nc(Nc2ccc(S(=O)(=O)N3CCOCC3)cc2OC)nc2[nH]cc(Cl)c12` [Compound 71, N4-butyl-5-chloro-N2-(2-methoxy-4-(morpholinosulfonyl)phenyl)-7H-pyrrolo[2,3-d]pyrimidine-2,4-diamine]: the IC50 fell in the range of 100 to 1000 nM.

Turning to `CCCCNc1nc(Nc2ccc(S(=O)(=O)N3CCC(N4CCOCC4)CC3)cc2OC)nc2[nH]cc(Cl)c12` [Compound 72, N4-butyl-5-chloro-N2-(2-methoxy-4-((4-morpholinopiperidin-1-yl)sulfonyl)phenyl)-7H-pyrrolo[2,3-d]pyrimidine-2,4-diamine], the IC50 lay within 100 to 1000 nM.

With `CCCCNc1nc(Nc2ccc(S(C)(=O)=O)cc2OC)nc2[nH]cc(Cl)c12` [Compound 73, N4-butyl-5-chloro-N2-(2-methoxy-4-(methylsulfonyl)phenyl)-7H-pyrrolo[2,3-d]pyrimidine-2,4-diamine], the half-inhibitory concentration (IC50) is 10 to 100 nM.

Take `CCCCNc1nc(Nc2ccc(C(=O)N3CCOCC3)c3c2OCCO3)nc2[nH]cc(Cl)c12` [Compound 74, (8-((4-(butylamino)-5-chloro-7H-pyrrolo[2,3-d]pyrimidin-2-yl)amino)-2,3-dihydrobenzo[b][1,4]dioxin-5-yl)(morpholino)methanone]: the IC50 fell in the range of 10 to 100 nM.

For the compound `CNc1nc(Nc2ccc(C(=O)N3CCOCC3)c3c2OCC3)nc2[nH]cc(Cl)c12` [Compound 76, (7-((5-chloro-4-(methylamino)-7H-pyrrolo[2,3-d]pyrimidin-2-yl)amino)-2,3-dihydrobenzofuran-4-yl)(morpholino)methanone], the IC50 was less than 10 nM.

As for `COc1cc(P2(=O)CCN(C3CC3)CC2)ccc1Nc1nc(NC2CCCC2)c2c(Cl)c[nH]c2n1` [Compound 78, 4-(4-((5-chloro-4-(cyclopentylamino)-7H-pyrrolo[2,3-d]pyrimidin-2-yl)amino)-3-methoxyphenyl)-1-cyclopropyl-1,4-azaphosphinane 4-oxide], the IC50 was in the range of 10 to 100 nM.

With `COc1cc(P2(=O)CCN(C3CCOCC3)CC2)ccc1Nc1nc(NC2CCCC2)c2c(Cl)c[nH]c2n1` [Compound 79], the concentration for half-maximal inhibition (IC50) was in the range of 10 to 100 nM.

For `O=C(c1ccc(Nc2nc(NC3CCCCC3)c3c(Cl)c[nH]c3n2)c2c1CCO2)N1CCC(N2CCOCC2)CC1` [Compound 80, (7-((5-chloro-4-(cyclohexylamino)-7H-pyrrolo[2,3-d]pyrimidin-2-yl)amino)-2,3-dihydrobenzofuran-4-yl)(4-morpholinopiperidin-1-yl)methanone], the half-maximal inhibitory concentration (IC50) lay in the range of 10 to 100 nM.

`COc1cc(P2(=O)CCN(C3CCOCC3)CC2)ccc1Nc1nc(NC2CCCCC2)c2c(Cl)c[nH]c2n1` [Compound 81, 4-(4-((5-chloro-4-(cyclohexylamino)-7H-pyrrolo[2,3-d]pyrimidin-2-yl)amino)-3-methoxyphenyl)-1-(tetrahydro-2H-pyran-4-yl)-1,4-azaphosphinane 4-oxide]: the half-inhibitory concentration (IC50) lay within 10 to 100 nM.

In the case of `CNc1nc(Nc2ccc(P3(=O)CCN(C(C)=O)CC3)cc2OC)nc2[nH]cc(Cl)c12` [Compound 82, 1-(4-(4-((5-chloro-4-(methylamino)-7H-pyrrolo[2,3-d]pyrimidin-2-yl)amino)-3-methoxyphenyl)-4-oxido-1,4-azaphosphinan-1-yl)ethan-1-one], the IC50 was less than 10 nM.

Consider `O=C(c1ccc(Nc2nc(NC3CCCCC3)c3c(Cl)c[nH]c3n2)c2c1CCO2)N1CCOCC1` [Compound 83, (7-((5-chloro-4-(cyclohexylamino)-7H-pyrrolo[2,3-d]pyrimidin-2-yl)amino)-2,3-dihydrobenzofuran-4-yl)(morpholino)methanone], for which the concentration for half-maximal inhibition (IC50) is 10 to 100 nM.

Consider `CCNc1nc(Nc2ccc(P3(=O)CCN(C4CC4)CC3)cc2OC)nc2[nH]cc(Cl)c12` [Compound 84, 4-(4-((5-chloro-4-(ethylamino)-7H-pyrrolo[2,3-d]pyrimidin-2-yl)amino)-3-methoxyphenyl)-1-cyclopropyl-1,4-azaphosphinane 4-oxide], for which the concentration for half-maximal inhibition (IC50) lay in the range of 10 to 100 nM.

For `CNc1nc(Nc2ccc(P3(=O)CCN(C4CC4)CC3)cc2OC)nc2[nH]cc(Cl)c12` [Compound 85, 4-(4-((5-chloro-4-(methylamino)-7H-pyrrolo[2,3-d]pyrimidin-2-yl)amino)-3-methoxyphenyl)-1-cyclopropyl-1,4-azaphosphinane 4-oxide], the IC50 was less than 10 nM.

As to `CNc1nc(Nc2ccc(C(=O)N3CCC(N4CCOCC4)CC3)c3c2OCC3)nc2[nH]cc(Cl)c12` [Compound 86, (7-((5-chloro-4-(methylamino)-7H-pyrrolo[2,3-d]pyrimidin-2-yl)amino)-2,3-dihydrobenzofuran-4-yl)(4-morpholinopiperidin-1-yl)methanone], the IC50 was less than 10 nM.

In the case of `COc1cc(S(=O)(=O)N2CCC(N3CCOCC3)CC2)ccc1Nc1nc(NC(C)C)c2c(Cl)c[nH]c2n1` [Compound 87, 5-chloro-N4-isopropyl-N2-(2-methoxy-4-((4-morpholinopiperidin-1-yl)sulfonyl)phenyl)-7H-pyrrolo[2,3-d]pyrimidine-2,4-diamine], the concentration for half-maximal inhibition (IC50) lay within 10 to 100 nM.

Consider `CC(C)Nc1nc(Nc2ccc(C(=O)N3CCC(N4CCOCC4)CC3)c3c2OCCO3)nc2[nH]cc(Cl)c12` [Compound 88], for which the IC50 was less than 10 nM.

Turning to `COc1cc(P2(=O)CCN(C(C)=O)CC2)ccc1Nc1nc(NC(C)C)c2c(Cl)c[nH]c2n1` [Compound 89, 1-(4-(4-((5-chloro-4-(isopropylamino)-7H-pyrrolo[2,3-d]pyrimidin-2-yl)amino)-3-methoxyphenyl)-4-oxido-1,4-azaphosphinan-1-yl)ethan-1-one], the 50% inhibitory concentration (IC50) is less than 10 nM.

`COc1cc(P2(=O)CCN(C3CC3)CC2)ccc1Nc1nc(NC2CC2)c2c(Cl)c[nH]c2n1` [Compound 90, 4-(4-((5-chloro-4-(cyclopropylamino)-7H-pyrrolo[2,3-d]pyrimidin-2-yl)amino)-3-methoxyphenyl)-1-cyclopropyl-1,4-azaphosphinane 4-oxide]: the half-maximal inhibitory concentration (IC50) was less than 10 nM.

`COc1cc(P2(=O)CCN(C(C)=O)CC2)ccc1Nc1nc(NC2CC2)c2c(Cl)c[nH]c2n1` [Compound 91, 1-(4-(4-((5-chloro-4-(cyclopropylamino)-7H-pyrrolo[2,3-d]pyrimidin-2-yl)amino)-3-methoxyphenyl)-4-oxido-1,4-azaphosphinan-1-yl)ethan-1-one]: the IC50 is less than 10 nM.

Consider `COc1cc(P2(=O)CCN(C(C)=O)CC2)ccc1Nc1nc(NC2CCC2)c2c(Cl)c[nH]c2n1` [Compound 92], for which the IC50 was less than 10 nM.

Turning to `COc1cc(P2(=O)CCN(C3CC3)CC2)ccc1Nc1nc(NC2CCCCC2)c2c(Cl)c[nH]c2n1` [Compound 93, 4-(4-((5-chloro-4-(cyclohexylamino)-7H-pyrrolo[2,3-d]pyrimidin-2-yl)amino)-3-methoxyphenyl)-1-cyclopropyl-1,4-azaphosphinane 4-oxide], the IC50 is 10 to 100 nM.

On to `COc1cc(S(C)(=O)=O)ccc1Nc1nc(N[C@H]2CCOC2)c2c(Cl)c[nH]c2n1` [Compound 94, (S)-5-chloro-N2-(2-methoxy-4-(methylsulfonyl)phenyl)-N4-(tetrahydrofuran-3-yl)-7H-pyrrolo[2,3-d]pyrimidine-2,4-diamine], for which the IC50 is less than 10 nM.

For `O=C(c1ccc(Nc2nc(N[C@H]3CCOC3)c3c(Cl)c[nH]c3n2)c2c1OCCO2)N1CCOCC1` [Compound 95], the IC50 was less than 10 nM.

In the case of `COc1cc(P2(=O)CCN(C3CC3)CC2)ccc1Nc1nc(NCC(C)C)c2c(Cl)c[nH]c2n1` [Compound 96, 4-(4-((5-chloro-4-(isobutylamino)-7H-pyrrolo[2,3-d]pyrimidin-2-yl)amino)-3-methoxyphenyl)-1-cyclopropyl-1,4-azaphosphinane 4-oxide], the IC50 was in the range of 10 to 100 nM.

Consider `COc1cc(P2(=O)CCN(C(C)=O)CC2)ccc1Nc1nc(NCC(C)C)c2c(Cl)c[nH]c2n1` [Compound 97, 1-(4-(4-((5-chloro-4-(isobutylamino)-7H-pyrrolo[2,3-d]pyrimidin-2-yl)amino)-3-methoxyphenyl)-4-oxido-1,4-azaphosphinan-1-yl)ethan-1-one], for which the half-inhibitory concentration (IC50) is less than 10 nM.

In the case of `CCNc1nc(Nc2ccc(P3(=O)CCN(C(C)=O)CC3)cc2OC)nc2[nH]cc(Cl)c12` [Compound 98], the half-inhibitory concentration (IC50) is less than 10 nM.

Regarding `CCCNc1nc(Nc2ccc(P3(=O)CCN(C4CC4)CC3)cc2OC)nc2[nH]cc(Cl)c12` [Compound 99, 4-(4-((5-chloro-4-(propylamino)-7H-pyrrolo[2,3-d]pyrimidin-2-yl)amino)-3-methoxyphenyl)-1-cyclopropyl-1,4-azaphosphinane 4-oxide], the IC50 is less than 10 nM.

Consider `CCCNc1nc(Nc2ccc(P3(=O)CCN(C(C)=O)CC3)cc2OC)nc2[nH]cc(Cl)c12` [Compound 100, 1-(4-(4-((5-chloro-4-(propylamino)-7H-pyrrolo[2,3-d]pyrimidin-2-yl)amino)-3-methoxyphenyl)-4-oxido-1,4-azaphosphinan-1-yl)ethan-1-one], for which the concentration for half-maximal inhibition (IC50) was less than 10 nM.

The values are drawn from patent US12479847B2 (DANA-FARBER CANCER INSTITUTE, INC., priority 2019, dated 2025).
